Experimental data published in publication PMC4336329 (PLoS ONE, 2015).
The whole screen tested about 310,000 compounds, of which about 14,000 (4.5%) showed an effect of 50% or more. Effects have a minus sign here. The list shows a part of the results.

Biological target: human ether-à-go-go-related gene (hERG) potassium channel (human, UniProt Q12809)
Assay: primary screen, population patch clamp on CHO cells stably expressing hERG
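Note: peak tail current of the secondary pulse compared with the same well before compound.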

Chain of human ether-à-go-go-related gene (hERG) potassium channel (Q12809 whole entry, looked up): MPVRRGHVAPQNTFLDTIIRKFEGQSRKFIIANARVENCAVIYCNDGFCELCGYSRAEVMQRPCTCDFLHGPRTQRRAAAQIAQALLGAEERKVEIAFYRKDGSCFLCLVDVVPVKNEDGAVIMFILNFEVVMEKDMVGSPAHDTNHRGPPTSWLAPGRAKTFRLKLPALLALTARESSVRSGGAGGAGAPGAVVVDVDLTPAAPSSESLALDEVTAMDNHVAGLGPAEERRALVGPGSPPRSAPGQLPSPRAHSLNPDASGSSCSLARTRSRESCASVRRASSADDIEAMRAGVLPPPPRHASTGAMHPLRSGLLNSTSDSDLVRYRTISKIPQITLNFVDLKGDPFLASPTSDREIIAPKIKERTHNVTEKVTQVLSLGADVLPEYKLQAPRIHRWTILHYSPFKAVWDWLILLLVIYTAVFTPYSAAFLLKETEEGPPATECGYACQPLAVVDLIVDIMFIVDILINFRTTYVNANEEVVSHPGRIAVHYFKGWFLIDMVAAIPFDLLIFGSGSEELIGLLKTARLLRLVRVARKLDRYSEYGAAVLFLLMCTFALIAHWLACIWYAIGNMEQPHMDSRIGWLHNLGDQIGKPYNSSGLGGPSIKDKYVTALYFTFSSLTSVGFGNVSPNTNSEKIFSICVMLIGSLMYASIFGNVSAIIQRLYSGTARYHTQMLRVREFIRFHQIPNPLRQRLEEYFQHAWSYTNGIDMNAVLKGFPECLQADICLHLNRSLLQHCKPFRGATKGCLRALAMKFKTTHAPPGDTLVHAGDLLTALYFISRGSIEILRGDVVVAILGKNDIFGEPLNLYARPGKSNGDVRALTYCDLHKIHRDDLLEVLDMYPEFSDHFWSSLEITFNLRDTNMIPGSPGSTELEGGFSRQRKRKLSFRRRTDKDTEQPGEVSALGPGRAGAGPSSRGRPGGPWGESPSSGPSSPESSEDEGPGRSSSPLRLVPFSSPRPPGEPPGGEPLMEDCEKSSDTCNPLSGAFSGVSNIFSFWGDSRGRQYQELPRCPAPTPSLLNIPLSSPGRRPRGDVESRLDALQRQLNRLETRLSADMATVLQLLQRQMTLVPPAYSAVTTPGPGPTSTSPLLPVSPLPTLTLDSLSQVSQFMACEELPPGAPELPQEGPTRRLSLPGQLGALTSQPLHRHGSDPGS

| SMILES | hERG current change (%, negative = inhibition) at 10uM |
| --- | --- |
| O=C1CC(C(=O)NC2CCCCC2)C(c2ccccc2)O1 (stereo not shown) | 3.7% |
| COc1cc(OC)cc(C(=O)Nc2ccc(S(=O)(=O)Nc3cc(C)on3)cc2)c1 | 12.3% |
| CC(C)Oc1ccc(C(=O)NC2(C(F)(F)F)N=C3SCCN3C2=O)cc1 (stereo not shown) | 4.23% |
| Cc1cc(NC(=O)CSCC(=O)Nc2ccccc2N2CCCCC2)no1 | 2.52% |
| CC(=O)Nc1ccc(-c2nc3ccccc3c(=O)o2)cc1 | 22.8% |
| O=C(NC(=S)Nc1ccc(Br)cc1)C1CCC1 | -7.27% |
| O=C(NCCc1ccccc1)c1ccc(CS(=O)Cc2cccc(Cl)c2)o1 (stereo not shown) | -6.23% |
| CCc1nc2ccccc2c(C(=O)NCc2ccccc2)c1C | -8.97% |
| Cc1cccc(Nc2ncnc(N)n2)c1 | 15.6% |
| COc1ccc2nc(C)cc(SCC(=O)[O-])c2c1.[Na+] | 24.1% |
| Cc1c(Cc2ccccc2)c(=O)oc2cc(OCc3ccc(C(=O)O)cc3)ccc12 | -1.42% |
| COc1ccc(NS(=O)(=O)c2ccc(NC(=S)NC(=O)c3cccnc3)cc2)nn1 | 10.1% |
| Cc1cccc(N(C(=O)CNC(=O)c2ccco2)C(C(=O)NC2CCCCC2)c2cccnc2)c1 (stereo not shown) | 15.2% |
| COC(=O)c1ccc(NC(=O)CCN2CCCCC2)cc1.Cl | -47.9% |
| CC(C)CNS(=O)(=O)c1ccc(CCC(=O)NCc2ccc(Cl)cc2)cc1 | -29.3% |
| CC(NC(=O)c1cccs1)C(c1cccs1)N1CCN(c2ccccc2)CC1 (stereo not shown) | -1.86% |
| CC(CCc1ccccc1)NC(=O)CC(C)c1ccccc1 (stereo not shown) | -13.1% |
| CC(=O)c1ccccc1OCCOc1ccccc1C(C)=O | -36.6% |
| CCOc1ccc2nc(C(=O)N3CCCC(C)C3)sc2c1 (stereo not shown) | -2.28% |
| Cn1c(COc2ccc3ccccc3c2)nnc1SCC(N)=O | 1.44% |
| COc1ccc(-c2cc3nc4c(c(N5CCC6(CC5)OCCO6)n3n2)CCC4)cc1 | -4.92% |
| COC(=O)C1=CN(C(C)C)C=C(C(=O)OC)C1c1cc2c(cc1Br)OCO2 | -17.4% |
| COc1ccc(C(CNC(=O)c2ccc(OCc3ccccc3)cc2)N2CCOCC2)cc1 (stereo not shown) | -18.1% |
| Cc1ccc(S(=O)(=O)N(C)CCCC(=O)Nc2ccncc2)cc1 | -63% |
| COCCN1C(=O)c2ccc(C(=O)NCc3ccco3)cc2C1=O | -7.98% |
